Experimental data published in paper PMC4336329 (PLoS ONE, 2015).
Screen size: about 310,000 compounds; about 14,000 (4.5%) showed an effect of 50% or more. The effect is printed as a negative number. Some of the results follow.

Biological target: human ether-à-go-go-related gene (hERG) potassium channel (human, UniProt Q12809)
Assay: primary screen, population patch clamp on CHO cells stably expressing hERG
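Note: peak tail current of the secondary pulse compared with the same well before compound.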

Sequence of human ether-à-go-go-related gene (hERG) potassium channel (Q12809 whole entry, looked up): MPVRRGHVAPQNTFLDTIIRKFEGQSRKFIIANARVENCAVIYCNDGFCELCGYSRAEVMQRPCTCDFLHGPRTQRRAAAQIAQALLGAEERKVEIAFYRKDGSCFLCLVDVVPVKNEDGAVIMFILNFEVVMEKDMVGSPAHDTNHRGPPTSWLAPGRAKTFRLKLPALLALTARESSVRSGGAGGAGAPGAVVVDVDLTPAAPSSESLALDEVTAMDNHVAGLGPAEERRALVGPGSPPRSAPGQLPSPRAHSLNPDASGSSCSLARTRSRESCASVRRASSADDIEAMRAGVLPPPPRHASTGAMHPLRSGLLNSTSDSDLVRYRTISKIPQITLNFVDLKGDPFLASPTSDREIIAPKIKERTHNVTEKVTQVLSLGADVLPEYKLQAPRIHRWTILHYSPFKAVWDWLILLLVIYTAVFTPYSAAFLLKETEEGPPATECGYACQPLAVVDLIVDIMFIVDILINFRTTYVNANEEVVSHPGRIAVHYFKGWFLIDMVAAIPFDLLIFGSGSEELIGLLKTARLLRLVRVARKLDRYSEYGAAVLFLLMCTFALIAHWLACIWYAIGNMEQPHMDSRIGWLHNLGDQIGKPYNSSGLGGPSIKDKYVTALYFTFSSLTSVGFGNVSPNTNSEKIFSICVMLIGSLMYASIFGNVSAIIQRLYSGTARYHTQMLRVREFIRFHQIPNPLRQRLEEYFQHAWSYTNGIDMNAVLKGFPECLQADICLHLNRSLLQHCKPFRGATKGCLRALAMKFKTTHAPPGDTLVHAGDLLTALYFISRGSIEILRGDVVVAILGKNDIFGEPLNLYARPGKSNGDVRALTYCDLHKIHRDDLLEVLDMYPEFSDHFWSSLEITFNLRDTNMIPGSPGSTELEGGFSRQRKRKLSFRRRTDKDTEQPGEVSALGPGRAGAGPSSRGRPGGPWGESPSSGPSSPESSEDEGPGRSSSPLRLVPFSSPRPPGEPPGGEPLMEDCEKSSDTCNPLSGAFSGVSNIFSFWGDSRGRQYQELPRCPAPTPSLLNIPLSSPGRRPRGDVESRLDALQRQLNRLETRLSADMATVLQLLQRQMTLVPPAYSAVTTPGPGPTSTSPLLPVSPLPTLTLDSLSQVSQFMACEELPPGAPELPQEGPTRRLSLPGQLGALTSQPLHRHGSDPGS

Structure (SMILES) | hERG current change (%, negative = inhibition) at 10uM [%]
Cc1nn(Cc2ccccc2)c(N)c1C#N | 1.59
CCOCCc1nnc(NC(=O)Cc2ccccc2)s1 | 3.24
CC(C)(C)OC(=O)N[C@@H](Cc1ccccc1)C(=O)N1CCC(C(=O)N[C@@H](CCC(N)=O)C(=O)O)CC1 | 14.5
CN1C(=O)/C(=C/c2ccc(C(=O)NC3CCCC3)cc2)Oc2ccccc21 | 17.1
O=C(Nc1ccc(Br)cc1F)c1ccc2c(c1)N(Cc1ccccc1)C(=O)CS2=O (stereo not drawn) | -4.04
Cc1ccc(-c2nc(C)sc2CC(=O)OCC(=O)Nc2ccc(F)c(Cl)c2)cc1 | -15.9
CCN(Cc1ccccc1)C(=O)CN1C(=O)c2ccccc2S1(=O)=O | -3.97
CC(=O)NCc1ccc(-c2csc(-c3cccs3)n2)cc1 | -40.5
CCCCNc1nc2c(c(=O)n(C)c(=O)n2C)n1CCC | 9.61
O=c1cc(-c2ccccc2)nc(N2CCCCC2)[nH]1 | -13.7
CN(C)S(=O)(=O)c1ccc2nc(NC(=O)c3cccs3)sc2c1 | -8.81
Cc1nnc(-c2cnn(-c3ccccc3)c2N)n1Cc1ccc(F)cc1 | -13.3
COc1ccc(Cl)cc1NC(=O)CCNS(=O)(=O)c1cccc2nonc12 | 11
CN(C)/C=C/C(=O)/C=C/c1ccc(Cl)cc1Cl | -22.2
Cc1nn(-c2ccccc2)c(Cl)c1/C=N/Nc1ccc(S(=O)(=O)Nc2ccccc2C(=O)O)cc1[N+](=O)[O-] | 11.2
CC(C)CCN(C(=S)Nc1cccc(C(F)(F)F)c1)C(C)c1ccccn1 (stereo not drawn) | -1.76
C#CCOCCOCCOCCNc1nc(N2CCN(C(=O)[C@H](Cc3ccc(O)cc3)n3cc([C@@H](N)C(C)CC)nn3)CC2)nc(N2CCN(C(=O)[C@H](CCCCN)n3cc([C@@H](N)CC(C)C)nn3)CC2)n1.Cl (stereo partly drawn) | 6.05
CCCN(CCC)C(=O)c1ccc2nc(-c3ccc(OC)c(OC)c3)c(-c3ccc(OC)c(OC)c3)nc2c1 | -5.84
CSc1nc(-c2ccc(C)cc2)nc(N)c1C#N | 7.79
O=C(CN1CCN(S(=O)(=O)c2cccc(F)c2)CC1)NCC1(N2CCOCC2)CCCCC1 | -5.26
Cc1ccc(C(C(=O)NCC2CCCO2)N(Cc2ccccc2)C(=O)c2ccc(-c3ccccc3)[nH]2)o1 (stereo not drawn) | -7.63

Structure (SMILES) | hERG current change (%, negative = inhibition) at 10uM [%]
CC(=NCc1ccc2c(c1)OCO2)C1=C(O)c2ccccc2C1=O | 1.76
CCc1ccc2c(c1)C(C)=CC(C)(C)N2 | 17
CCOc1ccc(CCNC(=O)c2ccccc2OCc2c(C)noc2C)cc1OCC | -12.4
c1ccc(-c2nnc3n2CCCC3)cc1 | 6.32
Cc1cccc(NC(=O)COc2cccc3c2CCN(C)C3=O)c1 | 10.6
Oc1ccc(/C=N/Nc2cccc(Cl)n2)c(O)c1 | -6.6
Cc1cc(N2C(=O)C(O)=C(C(=O)c3cc4ccccc4o3)C2c2cccs2)no1 (stereo not drawn) | 23.6
O=C(NN1C(=O)/C(=C\c2cccnc2)SC1=S)c1ccco1 | 0.819
Cc1ccc2c(c1Cl)NC(C(=O)O)C1CC(Sc3ccccc3[N+](=O)[O-])C(Cl)C21 (stereo not drawn) | -1.25
CC(C(=O)N1CCc2ccccc21)n1cccc1 (stereo not drawn) | 8.51
COc1ccc(C(=O)NCCNc2ccc([N+](=O)[O-])cc2)cc1OC | -1.31
c1ccc2c(OCCCCN3CCCC3)cccc2c1 | -27.1
COc1ccccc1CNC(=O)C(C)Sc1ccc(C)cc1 (stereo not drawn) | 5.38
COc1ccc(C(=O)NCC2(c3ccccc3)CCOCC2)cc1 | 3.93
CCN(CC)CCCCNc1ncc2cc(-c3cc(OC)cc(OC)c3)c(NC(=O)NC(C)(C)C)nc2n1 | -38.2
CC1CN(C(=O)CCC(=O)NCc2ccccn2)c2ccccc2O1 (stereo not drawn) | 18.2
CC1(C)CNC(=O)CC(C)(C)N1 | 4.53
Oc1[nH]c2ccccc2c1N=Nc1nc(Nc2ccccc2)nc(N2CCOCC2)n1 | -0.289
CC(OC(=O)c1nn(C(C)C)c(=O)c2ccccc12)C(=O)Nc1ncc(Cl)cc1Cl (stereo not drawn) | 5.08
COc1ccccc1OCCn1cc(C(=O)C(C)C)c2ccccc21 | 10.7
CC(C)c1ccc(N2CC(C)(C)C2=O)cc1 | 5.81
